# In PubChem BioAssay AID588456 (National Center for Advancing Translational Sciences (NCATS), 2011):
# Where “and” joins values, the source holds several entries; their conditions need not be identical. Identical values can stand only once. About 55 (0.01%) of roughly 390,000 compounds were called active. The inconclusive results got no clear call from the source; some entries with a clear call stand among them for comparison. Calls follow the shape of the dose curve; as a rule, active = well fitted inhibition curve with a large enough effect; inconclusive = small, poorly fitted or top-dose-only effect; inactive = no such curve, though single readings can be large or run the other way. Where the call is inconclusive, the potency comes from a doubtful curve fit.
# Molecular target: Thioredoxin reductase 1, cytoplasmic (Rattus norvegicus) (UniProt O89049)
# Assay: qHTS Assay for Substrates of Mammalian Selenoprotein Thioredoxin Reductase 1 (TrxR1): qHTS; also: nearly all actives have a fitted effect of over 50% in size
# Conditions: purified TrxR1 substrate turnover, NADPH consumption readout; series mostly up to 114 µM; activity change, negative = substrate turnover: at the top concentration
# Outline: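 Rat TrxR1, dispensed at 90 nM, was prereduced with 400 uM NADPH (final) for 5 min at ~22 deg C, then incubated with compound 15 min before 400 uM selenite. A first-read NADPH fluorescence drop versus no-compound background flagged substrates.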
# % is scaled to controls: 0 for no effect and ±100 for the full control effect; potency is read from the fitted curve at half-maximal effect; tags tell the direction and shape of the fitted curve.
# UniProt O89049, sequence (O89049 whole entry, looked up): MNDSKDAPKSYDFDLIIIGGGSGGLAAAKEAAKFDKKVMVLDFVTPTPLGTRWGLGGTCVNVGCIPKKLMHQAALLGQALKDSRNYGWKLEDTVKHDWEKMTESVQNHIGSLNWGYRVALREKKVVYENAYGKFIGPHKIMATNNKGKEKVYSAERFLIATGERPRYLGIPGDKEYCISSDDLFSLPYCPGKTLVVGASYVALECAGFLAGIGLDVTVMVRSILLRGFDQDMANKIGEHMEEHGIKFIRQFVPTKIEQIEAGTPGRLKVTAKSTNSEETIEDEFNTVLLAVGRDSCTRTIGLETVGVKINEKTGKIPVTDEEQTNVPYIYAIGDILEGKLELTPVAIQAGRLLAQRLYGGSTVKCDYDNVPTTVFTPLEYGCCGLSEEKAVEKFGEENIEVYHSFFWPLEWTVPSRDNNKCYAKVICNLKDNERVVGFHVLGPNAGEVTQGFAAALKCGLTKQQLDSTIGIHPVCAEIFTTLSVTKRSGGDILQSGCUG
SMILES,Potency,"activity change, negative = substrate turnover"
CC1COCC(C)N1C1=C(Cl)C(=O)c2ccccc2C1=O (stereo not given),"inconclusive: 50.1 µM [inhibitor, partial curve]",–
CCCCCCC/C=C\CCCCCCCCC(=O)O,"inconclusive: 17.8 µM [inhibitor, single point]",–
CC(C)OCCCn1c(NN)nc2ccccc2c1=O,–,inactive: -0.658% [at 57.1 µM]
O=C(CN1CCN(c2ccc(Cl)cc2)CC1)NCc1cccs1,"inconclusive: 100 µM [inhibitor, partial curve, poor fit]",–
NC/C=C/C(=O)O,"inconclusive: 42.3 µM [inhibitor, partial curve, poor fit]",–
COC(=O)c1ccc(COC(=O)CCc2nc(-c3ccccc3)c(-c3ccccc3)o2)cc1,–,inactive: 13.3%
COC(=O)c1sc(SC)c(S(=O)(=O)C(C)C)c1N/N=C(\C#N)C(=O)c1ccccc1,"inconclusive: 56.2 µM [inhibitor, partial curve, poor fit]",–
CCOC(=O)N1CCN(C(=O)C2CCN(S(=O)(=O)N3CCC4(CC3)OCCO4)CC2)CC1,"inconclusive: 89.1 µM [inhibitor, partial curve, poor fit]",–
O=C(O)/C=C\C(=O)Nc1cc(O)ccc1[N+](=O)[O-],"inconclusive: 70.8 µM [inhibitor, partial curve, poor fit]",–
CCc1nc(C)c(C(=O)N2CCCC(C(=O)Nc3cccc(-c4cccc(C)c4)c3)C2)o1 (stereo not given),"inconclusive: 89.1 µM [inhibitor, partial curve, poor fit]",–
Cn1cccc1/C=C1\SC(=S)N(CC(=O)O)C1=O,"inconclusive: 79.4 µM [inhibitor, single point]",–
CC(=O)Nc1ccc(N/C=C2/CCCC2=O)cc1,"inconclusive: 89.1 µM [inhibitor, partial curve, poor fit]",–
CCOC(=O)C(=O)Nc1ncc(Cl)s1,"inconclusive: 89.1 µM [inhibitor, single point]",–
CCN(CC)CCCNC(=O)c1cn(CC)c2cc(N3CCN(C(=O)c4ccco4)CC3)c(F)cc2c1=O,–,inactive: 76.1%
COc1ccc(C(=O)Oc2cc(-c3ccc4c(c3)OCO4)cc(=O)c3c(C)oc(C)c23)cc1,–,inactive: 2.96%
Cc1cc2c(c(=O)o1)C(c1cccs1)C(C#N)=C(N)O2 (stereo not given),–,inactive: 4.51%
CCC(CO)Oc1cc(NCc2ccc(C)cc2)c2ncn(C(C)C)c2c1 (stereo not given),–,inactive: -6.12%
N#C/C(=C/c1ccc(N2CCOCC2)o1)C(=O)N1CCOCC1,"inconclusive: 79.4 µM [inhibitor, partial curve]",–
O=c1c(Oc2ccccc2)coc2cc(O)cc(O)c12,"inconclusive: 89.1 µM [inhibitor, single point]",–
CCOC(=O)/C=C1/SCC(=O)N1Cc1ccc(Br)cc1,–,inactive: -0.637%

SMILES,Potency,"activity change, negative = substrate turnover"
CC1(C)SC(=S)N(/N=C/c2ccc(O)cc2)C1N(O)C(=O)Nc1ccc([N+](=O)[O-])cc1 (stereo not given),"inconclusive: 15.8 µM [inhibitor, partial curve, poor fit]",–
Cc1cccc(Cn2ccc(NC(=O)c3cccnc3)n2)c1,"inconclusive: 31.6 µM [inhibitor, single point]",–
COc1ccccc1C1C(C#N)=C(N)N(N(C)C)C2=C1C(=O)CC(C)(C)C2 (stereo not given),"inconclusive: 89.1 µM [inhibitor, single point]",–
COc1cc2c(cc1OC)CN(C(=O)CCOc1ccccc1)CC2,"inconclusive: 89.1 µM [inhibitor, partial curve, poor fit]",–
CC1CCN(C(=O)CSc2nnc(-c3ccccc3)o2)CC1,"inconclusive: 89.1 µM [inhibitor, single point]",–
Cc1n[nH]c(=S)n1/N=C/c1ccc(-c2ccccc2[N+](=O)[O-])o1,–,inactive: -13.6%
SCc1nc2ccc(Cl)cc2[nH]1,–,inactive: 6.82%
N#Cc1c([N+](=O)[O-])cc([N+](=O)[O-])cc1S(=O)(=O)Cc1ccccc1,"inconclusive: 89.1 µM [inhibitor, partial curve, poor fit]",–
CC(C)c1ccc(N(CC(=O)N2CCN(Cc3ccccc3)CC2)S(C)(=O)=O)cc1,"inconclusive: 79.4 µM [inhibitor, partial curve, poor fit]",–
CCS(=O)(=O)N1CCC2(CC1)OC(=O)C(C)=C2C(=O)NCc1cccc(Cl)c1,"inconclusive: 39.8 µM [inhibitor, single point]",–
CC(=O)O[C@]1(C(C)=O)CC[C@H]2[C@@H]3C=C(Cl)C4=CC(=O)[C@@H]5C[C@@H]5[C@]4(C)[C@H]3CC[C@@]21C,"inconclusive: 89.1 µM [inhibitor, partial curve, poor fit] and inconclusive: 26.7 µM [inhibitor, partial curve, poor fit]",–
O=C(NNC(=O)C1CC1)c1ccc(F)cc1F,"inconclusive: 100 µM [inhibitor, partial curve, poor fit]",–
O=C(Oc1ccc(N(C(=O)c2ccncc2)S(=O)(=O)c2ccc(F)cc2)cc1)c1ccncc1,"inconclusive: 89.1 µM [inhibitor, single point]",–
Nc1cccc2c1C(=O)N(CC(=O)NC13CC4CC(CC(C4)C1)C3)C2=O,–,inactive: 15.1%
O=C(c1ccc(NC(=S)NCc2ccco2)cc1)N1CCOCC1,"inconclusive: 89.1 µM [inhibitor, single point]",–
O=[N+]([O-])c1ccc(OCCOCCOc2ccc([N+](=O)[O-])cc2)cc1,"inconclusive: 89.1 µM [inhibitor, partial curve, poor fit]",–
CC(C)NC(=O)c1ccc2c(c1)N(CC(=O)N1CCCC1)C(=O)C(C)(C)O2,"inconclusive: 100 µM [inhibitor, single point]",–
O=C(Nc1ccc(Oc2ccccc2)cc1)c1ccc(F)c(S(=O)(=O)N2CCN(c3cccc(Cl)c3)CC2)c1,–,inactive: -0.333% [at 57.1 µM]
C=C(C(=O)Oc1c(C(C)(C)C)cccc1C(C)(C)C)c1ccccc1,"inconclusive: 1.41 µM [inhibitor, partial curve, poor fit]",–
COc1ccc(CCNC(=O)C2CC(=O)N(c3ccc(C(C)(C)C)cc3)C2)cc1OC (stereo not given),"inconclusive: 89.1 µM [inhibitor, single point]",–
